What all share (assay): pull-down; GFP or GFP–MCPH1 variants immunoprecipitated from HEK293 lysate and held on GFP-Trap beads, incubated 3 h at 4°C with HEK293 cell extract containing FLAG–CDH1 (or CDH1 fragments) in NETN buffer (50 mM Tris pH 7.6, 150 mM NaCl, 1 mM EDTA, 1% NP-40); washed 3 times in TBST; Western blot; only the target purified
For orientation: In western blotting, separated proteins are transferred to a membrane and probed.

Sequences of proteins named here, by UniProt entry; tags and fusion partners are left off.
UniProt Q9UM11: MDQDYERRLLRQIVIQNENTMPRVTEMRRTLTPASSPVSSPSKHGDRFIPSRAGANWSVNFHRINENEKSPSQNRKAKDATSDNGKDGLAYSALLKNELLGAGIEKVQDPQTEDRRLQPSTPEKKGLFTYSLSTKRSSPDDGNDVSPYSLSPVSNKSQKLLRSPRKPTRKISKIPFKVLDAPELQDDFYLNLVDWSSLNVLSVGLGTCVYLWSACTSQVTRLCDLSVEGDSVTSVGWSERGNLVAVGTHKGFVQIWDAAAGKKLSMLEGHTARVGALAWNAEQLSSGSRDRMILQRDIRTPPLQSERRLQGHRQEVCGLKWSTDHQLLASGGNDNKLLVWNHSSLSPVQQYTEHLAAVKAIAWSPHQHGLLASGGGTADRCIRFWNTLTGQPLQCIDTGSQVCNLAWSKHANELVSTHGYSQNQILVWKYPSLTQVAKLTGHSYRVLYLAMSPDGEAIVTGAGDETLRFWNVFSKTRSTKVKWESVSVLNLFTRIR

Assay [1] concerns the target T1, GFP–MCPH1 1–391 (human) (UniProt Q8NEM0).
T1 sequence: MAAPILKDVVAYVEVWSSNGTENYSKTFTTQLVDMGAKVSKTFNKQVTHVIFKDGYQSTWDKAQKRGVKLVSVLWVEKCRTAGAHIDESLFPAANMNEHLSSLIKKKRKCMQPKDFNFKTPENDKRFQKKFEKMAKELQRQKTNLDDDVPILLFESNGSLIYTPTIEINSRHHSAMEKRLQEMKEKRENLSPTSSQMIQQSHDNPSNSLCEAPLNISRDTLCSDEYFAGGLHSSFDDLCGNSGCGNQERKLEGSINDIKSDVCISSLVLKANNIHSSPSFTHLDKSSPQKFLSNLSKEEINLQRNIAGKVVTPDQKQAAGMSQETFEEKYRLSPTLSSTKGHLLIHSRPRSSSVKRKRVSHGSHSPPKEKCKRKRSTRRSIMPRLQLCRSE

The target of assay [2] is T2, GFP–MCPH1-L (microcephalin-1, long isoform, 835 aa) (human) (UniProt Q8NEM0).
T2 sequence: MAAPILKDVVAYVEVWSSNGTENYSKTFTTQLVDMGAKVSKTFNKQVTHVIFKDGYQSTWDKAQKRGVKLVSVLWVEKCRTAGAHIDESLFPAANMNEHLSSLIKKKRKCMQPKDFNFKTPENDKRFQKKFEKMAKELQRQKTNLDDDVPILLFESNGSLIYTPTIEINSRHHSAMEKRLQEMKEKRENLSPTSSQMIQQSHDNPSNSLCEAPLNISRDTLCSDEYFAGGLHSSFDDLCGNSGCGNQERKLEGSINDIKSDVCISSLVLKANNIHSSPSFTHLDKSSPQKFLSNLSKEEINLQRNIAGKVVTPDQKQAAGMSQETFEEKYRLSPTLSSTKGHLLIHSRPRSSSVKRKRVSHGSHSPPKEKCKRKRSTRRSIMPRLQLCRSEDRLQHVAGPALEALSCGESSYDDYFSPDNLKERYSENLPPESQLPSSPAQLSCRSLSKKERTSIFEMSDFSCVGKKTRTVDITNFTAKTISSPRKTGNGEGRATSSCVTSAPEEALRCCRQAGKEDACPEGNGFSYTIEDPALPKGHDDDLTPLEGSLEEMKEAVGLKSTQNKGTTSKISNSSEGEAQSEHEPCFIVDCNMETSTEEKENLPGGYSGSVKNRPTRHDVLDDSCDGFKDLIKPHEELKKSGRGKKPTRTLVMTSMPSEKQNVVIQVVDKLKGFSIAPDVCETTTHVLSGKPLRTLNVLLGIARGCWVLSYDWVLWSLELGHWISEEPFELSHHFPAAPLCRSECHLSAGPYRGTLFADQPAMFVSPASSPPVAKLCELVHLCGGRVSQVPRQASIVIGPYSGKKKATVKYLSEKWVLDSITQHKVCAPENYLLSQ

For assay [3], the target named is T3, GFP–MCPH1-L S769A (human) (UniProt Q8NEM0).
T3 sequence: T2 sequence with S769A

Assay [4] addresses T4, GFP–MCPH1-L S769E (human) (UniProt Q8NEM0).
T4 sequence: T2 sequence with S769E

Assay [5] addresses T5, GFP–MCPH1-L T754A (human) (UniProt Q8NEM0).
T5 sequence: T2 sequence with T754A

Residue numbers refer to the chain shown, from its start. These are yes or no findings as the source states them, for the method shown. Binding seen in cells or lysates may run through a third protein. Some entries that bind do so weakly or less than the wild type. Tags and fused reporters may be left off the sequences shown.

For the substance FLAG–CDH1 (from UniProt Q9UM11 1-496), the binding result in assay [1] is “no binding”; in assay [2], “binds”; in assay [3], “binds”; in assay [4], “binds”; in assay [5], “binds”.

The values above are taken from paper PMC6338662.
